Results taken from patent US20250361299A1 (published 2025).

T1: Human CD3 protein (human, UniProt P07766 23-126)
T1 chain: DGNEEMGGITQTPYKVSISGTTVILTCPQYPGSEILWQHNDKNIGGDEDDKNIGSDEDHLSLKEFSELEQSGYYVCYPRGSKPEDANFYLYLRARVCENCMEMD


Assays:
[1] = molecular target: T1, Human CD3 protein; test: ELISA; without uPA
[2] = molecular target: T2, Recombinant human EGFR (human, UniProt P00533 partial chain); test: ELISA; without uPA
[3] = molecular target: T1, Human CD3 protein; test: ELISA; without uPA
[4] = molecular target: T2, Recombinant human EGFR; test: ELISA; without uPA; remark: listed apart in the source
[5] = molecular target: T1, Human CD3 protein; test: ELISA; with uPA
[6] = molecular target: T2, Recombinant human EGFR; test: ELISA; with uPA

| Binder | EC50 [1] | EC50 [2] | EC50 [3] | EC50 [4] | also measured |
| --- | --- | --- | --- | --- | --- |
| 1.6 proBiTE (bispecific antibody) heavy: QDGNEEMGGGSQDGNEEMGGGGSGGGSGGGSGLSGRSDNHGGSSGGSEVQLVESGGGLVQPGGSLRLSCAASGFTFNTYAMNWVRQAPGKGLEWVARIRSKYNNYATYYADSVKGRFTISRDDSKNTLYLQMNSLRAEDTAVYYCARHGNFGSSYVSYFAYWGQGTTVTVSSASTKGPSVFPLAPSSKSTSGGTAALGCLVKDYFPEPVTVSWNSGALTSGVHTFPAVLQSSGLYSLSSVVTVPSSSLGTQTYICNVNHKPSNTKVDKKVEPKS[human IgG1 Fc with T366L Y407H (EU numbers) cut from this listing]GGGGSGGGGSGGGGSEVQLVETGGGVVQPGRSLRLSCAASGFTFSSYAMHWVRQAPGKGLEWVAVISYDGSNKYYADSVKGRFTISRDNSKNTLYLQMNSLRAEDTAVYYCARGYVARGDFDYWGQGTLVTVSS light: EIVVTQSPATLSVSPGERATLSCRSSTGAVTTSNYANWVQQKPGQAPRGLIGGANKRAPGVPARFSGSLSGDEATLTISSLQSEDFAVYYCALWYSNLWVFGQGTKLEIKRTVAAPSVFIFPPSDEQLKSGTASVVCLLNNFYPREAKVQWKVDNALQSGNSQESVTEQDSKDSTYSLSSTLTLSKADYEKHKVYACEVTHQGLSSPVTKSFNRGE[human IgG1 Fc with T366L Y407H (EU numbers) cut from this listing]GGGGSGGGGSGGGGSDVVMTQSPSTLSASVGDRVTITCRASQSMSRWLAWYQQKPGKGPKLLIYATSTLQSGVPSRFSGSGSGTEFTLTISSLQPEDFATYYCQQLDSFPFSFTFGPGTKVDLK | ~965 mg/L | 23 mg/L |  |  |  |
| 1.7.1 proBiTE (bispecific antibody) heavy: QDGNEEMGGGSQDGNEEMGGGGSGGGSGGGSGLSGRSDNHGGGGSEVQLVESGGGLVQPGGSLRLSCAASGFTFNTYAMNWVRQAPGKGLEWVARIRSKYNNYATYYADSVKGRFTISRDDSKNTLYLQMNSLRAEDTAVYYCARHGNFGSSYVSYFAYWGQGTTVTVSSASTKGPSVFPLAPSSKSTSGGTAALGCLVKDYFPEPVTVSWNSGALTSGVHTFPAVLQSSGLYSLSSVVTVPSSSLGTQTYICNVNHKPSNTKVDKKVEPKS[human IgG1 Fc with T366L Y407H (EU numbers) cut from this listing]GGGGSGGGGSGGGGSGGGGSEVQLVETGGGVVQPGRSLRLSCAASGFTFSSYAMHWVRQAPGKGLEWVAVISYDGSNKYYADSVKGRFTISRDNSKNTLYLQMNSLRAEDTAVYYCARGYVARGDFDYWGQGTLVTVSSGGGGSGGGGSGGGGSGGGGSDVVMTQSPSTLSASVGDRVTITCRASQSMSRWLAWYQQKPGKGPKLLIYATSTLQSGVPSRFSGSGSGTEFTLTISSLQPEDFATYYCQQLDSFPFSFTFGPGTKVDLK light: EIVVTQSPATLSVSPGERATLSCRSSTGAVTTSNYANWVQQKPGQAPRGLIGGANKRAPGVPARFSGSLSGDEATLTISSLQSEDFAVYYCALWYSNLWVFGQGTKLEIKRTVAAPSVFIFPPSDEQLKSGTASVVCLLNNFYPREAKVQWKVDNALQSGNSQESVTEQDSKDSTYSLSSTLTLSKADYEKHKVYACEVTHQGLSSPVTKSFNRGE[human IgG1 Fc with T366L Y407H (EU numbers) cut from this listing]GGGGSGGGGSGGGGSGGGGSEVQLVETGGGVVQPGRSLRLSCAASGFTFSSYAMHWVRQAPGKGLEWVAVISYDGSNKYYADSVKGRFTISRDNSKNTLYLQMNSLRAEDTAVYYCARGYVARGDFDYWGQGTLVTVSSGGGGSGGGGSGGGGSGGGGSDVVMTQSPSTLSASVGDRVTITCRASQSMSRWLAWYQQKPGKGPKLLIYATSTLQSGVPSRFSGSGSGTEFTLTISSLQPEDFATYYCQQLDSFPFSFTFGPGTKVDLK |  |  | ~178 mg/L | 19.4 mg/L |  |
| 1.7 proBiTE (bispecific antibody) heavy: QDGNEEMGGGSQDGNEEMGGGGSGGGSGGGSGLSGRSDNHGGSSGGSEVQLVESGGGLVQPGGSLRLSCAASGFTFNTYAMNWVRQAPGKGLEWVARIRSKYNNYATYYADSVKGRFTISRDDSKNTLYLQMNSLRAEDTAVYYCARHGNFGSSYVSYFAYWGQGTTVTVSSASTKGPSVFPLAPSSKSTSGGTAALGCLVKDYFPEPVTVSWNSGALTSGVHTFPAVLQSSGLYSLSSVVTVPSSSLGTQTYICNVNHKPSNTKVDKKVEPKS[human IgG1 Fc with T366L Y407H (EU numbers) cut from this listing]GGGGSGGGGSGGGGSEVQLVETGGGVVQPGRSLRLSCAASGFTFSSYAMHWVRQAPGKGLEWVAVISYDGSNKYYADSVKGRFTISRDNSKNTLYLQMNSLRAEDTAVYYCARGYVARGDFDYWGQGTLVTVSSGGGGSGGGGSGGGGSDVVMTQSPSTLSASVGDRVTITCRASQSMSRWLAWYQQKPGKGPKLLIYATSTLQSGVPSRFSGSGSGTEFTLTISSLQPEDFATYYCQQLDSFPFSFTFGPGTKVDLK light: EIVVTQSPATLSVSPGERATLSCRSSTGAVTTSNYANWVQQKPGQAPRGLIGGANKRAPGVPARFSGSLSGDEATLTISSLQSEDFAVYYCALWYSNLWVFGQGTKLEIKRTVAAPSVFIFPPSDEQLKSGTASVVCLLNNFYPREAKVQWKVDNALQSGNSQESVTEQDSKDSTYSLSSTLTLSKADYEKHKVYACEVTHQGLSSPVTKSFNRGE[human IgG1 Fc with T366L Y407H (EU numbers) cut from this listing]GGGGSGGGGSGGGGSEVQLVETGGGVVQPGRSLRLSCAASGFTFSSYAMHWVRQAPGKGLEWVAVISYDGSNKYYADSVKGRFTISRDNSKNTLYLQMNSLRAEDTAVYYCARGYVARGDFDYWGQGTLVTVSSGGGGSGGGGSGGGGSDVVMTQSPSTLSASVGDRVTITCRASQSMSRWLAWYQQKPGKGPKLLIYATSTLQSGVPSRFSGSGSGTEFTLTISSLQPEDFATYYCQQLDSFPFSFTFGPGTKVDLK | ~951 mg/L | 7.14 mg/L |  |  |  |
| 1.7 proBiTE after uPA digestion (bispecific antibody) heavy: SDNHGGSSGGSEVQLVESGGGLVQPGGSLRLSCAASGFTFNTYAMNWVRQAPGKGLEWVARIRSKYNNYATYYADSVKGRFTISRDDSKNTLYLQMNSLRAEDTAVYYCARHGNFGSSYVSYFAYWGQGTTVTVSSASTKGPSVFPLAPSSKSTSGGTAALGCLVKDYFPEPVTVSWNSGALTSGVHTFPAVLQSSGLYSLSSVVTVPSSSLGTQTYICNVNHKPSNTKVDKKVEPKS[human IgG1 Fc with T366L Y407H (EU numbers) cut from this listing]GGGGSGGGGSGGGGSEVQLVETGGGVVQPGRSLRLSCAASGFTFSSYAMHWVRQAPGKGLEWVAVISYDGSNKYYADSVKGRFTISRDNSKNTLYLQMNSLRAEDTAVYYCARGYVARGDFDYWGQGTLVTVSSGGGGSGGGGSGGGGSDVVMTQSPSTLSASVGDRVTITCRASQSMSRWLAWYQQKPGKGPKLLIYATSTLQSGVPSRFSGSGSGTEFTLTISSLQPEDFATYYCQQLDSFPFSFTFGPGTKVDLK light: EIVVTQSPATLSVSPGERATLSCRSSTGAVTTSNYANWVQQKPGQAPRGLIGGANKRAPGVPARFSGSLSGDEATLTISSLQSEDFAVYYCALWYSNLWVFGQGTKLEIKRTVAAPSVFIFPPSDEQLKSGTASVVCLLNNFYPREAKVQWKVDNALQSGNSQESVTEQDSKDSTYSLSSTLTLSKADYEKHKVYACEVTHQGLSSPVTKSFNRGE[human IgG1 Fc with T366L Y407H (EU numbers) cut from this listing]GGGGSGGGGSGGGGSEVQLVETGGGVVQPGRSLRLSCAASGFTFSSYAMHWVRQAPGKGLEWVAVISYDGSNKYYADSVKGRFTISRDNSKNTLYLQMNSLRAEDTAVYYCARGYVARGDFDYWGQGTLVTVSSGGGGSGGGGSGGGGSDVVMTQSPSTLSASVGDRVTITCRASQSMSRWLAWYQQKPGKGPKLLIYATSTLQSGVPSRFSGSGSGTEFTLTISSLQPEDFATYYCQQLDSFPFSFTFGPGTKVDLK |  |  |  |  | EC50 [5]: 5.37 mg/L; EC50 [6]: 7.15 mg/L |
| 1.6.1 proBiTE (bispecific antibody) heavy: QDGNEEMGGGSQDGNEEMGGIGGGSGGGGSGLSGRSDNHGGGGSEVQLVESGGGLVQPGGSLRLSCAASGFTFNTYAMNWVRQAPGKGLEWVARIRSKYNNYATYYADSVKGRFTISRDDSKNTLYLQMNSLRAEDTAVYYCARHGNFGSSYVSYFAYWGQGTTVTVSSASTKGPSVFPLAPSSKSTSGGTAALGCLVKDYFPEPVTVSWNSGALTSGVHTFPAVLQSSGLYSLSSVVTVPSSSLGTQTYICNVNHKPSNTKVDKKVEPKS[human IgG1 Fc with T366L Y407H (EU numbers) cut from this listing] light: EVQLVETGGGVVQPGRSLRLSCAASGFTFSSYAMHWVRQAPGKGLEWVAVISYDGSNKYYADSVKGRFTISRDNSKNTLYLQMNSLRAEDTAVYYCARGYVARGDFDYWGQGTLVTVSSGGGGSGGGGSGGGGSGGGGSDVVMTQSPSTLSASVGDRVTITCRASQSMSRWLAWYQQKPGKGPKLLIYATSTLQSGVPSRFSGSGSGTEFTLTISSLQPEDFATYYCQQLDSFPFSFTFGPGTKVDLKGGGGSGGGGSGGGGSGGGGSEIVVTQSPATLSVSPGERATLSCRSSTGAVTTSNYANWVQQKPGQAPRGLIGGANKRAPGVPARFSGSLSGDEATLTISSLQSEDFAVYYCALWYSNLWVFGQGTKLEIKRTVAAPSVFIFPPSDEQLKSGTASVVCLLNNFYPREAKVQWKVDNALQSGNSQESVTEQDSKDSTYSLSSTLTLSKADYEKHKVYACEVTHQGLSSPVTKSFNRGE[human IgG1 Fc with T366L Y407H (EU numbers) cut from this listing] |  |  | 53.5 mg/L | 1.89 mg/L |  |
